The full ranking holds about 110,000 compounds; the median of “z-score” is about -0.1, and the highest 2% start at about 2. The list shows a part of the results. Activity calls are given as the source filed them.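 How the source made its calls: active means z-score in the third read window above 3 or below -3; inactive means the rest.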

The target in the assay is Metabotropic glutamate receptor 8 (Rattus norvegicus) (UniProt P70579). In words: rat mGluR8 modulators via GIRK flux, primary screen, cell-based, thallium flux, HTS (AID 488969). Conditions: HEK293 rat mGluR8, GIRK (G protein-gated inwardly rectifying potassium channel) thallium flux, FluoZin2; at 10 µM; stronger effect = higher value; submaximal glutamate (EC20) added with thallium.
UniProt P70579, sequence (P70579 whole entry, looked up): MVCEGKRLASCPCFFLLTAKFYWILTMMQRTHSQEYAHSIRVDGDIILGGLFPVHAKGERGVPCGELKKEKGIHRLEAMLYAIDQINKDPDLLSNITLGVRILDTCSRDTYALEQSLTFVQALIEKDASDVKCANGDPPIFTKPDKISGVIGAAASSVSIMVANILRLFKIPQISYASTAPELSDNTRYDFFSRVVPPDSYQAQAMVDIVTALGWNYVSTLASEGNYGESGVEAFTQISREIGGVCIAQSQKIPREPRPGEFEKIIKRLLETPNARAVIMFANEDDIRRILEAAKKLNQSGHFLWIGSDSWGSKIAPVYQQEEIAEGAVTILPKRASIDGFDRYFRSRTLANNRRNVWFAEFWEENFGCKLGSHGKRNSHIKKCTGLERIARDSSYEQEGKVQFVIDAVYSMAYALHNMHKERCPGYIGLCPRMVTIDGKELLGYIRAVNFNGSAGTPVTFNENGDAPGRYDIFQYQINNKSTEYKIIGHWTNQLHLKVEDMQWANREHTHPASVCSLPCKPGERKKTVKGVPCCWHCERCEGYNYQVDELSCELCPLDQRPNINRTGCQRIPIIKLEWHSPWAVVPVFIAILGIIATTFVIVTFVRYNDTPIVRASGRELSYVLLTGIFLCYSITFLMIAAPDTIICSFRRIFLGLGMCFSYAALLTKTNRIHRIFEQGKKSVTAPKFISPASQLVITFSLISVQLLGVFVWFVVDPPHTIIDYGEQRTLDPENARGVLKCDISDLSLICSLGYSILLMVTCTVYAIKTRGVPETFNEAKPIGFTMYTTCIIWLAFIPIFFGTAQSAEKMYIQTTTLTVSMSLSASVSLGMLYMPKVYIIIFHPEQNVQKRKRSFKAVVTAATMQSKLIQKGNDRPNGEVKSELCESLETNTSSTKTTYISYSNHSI
For the compound `COc1cccc(-c2nc3ccccc3s2)c1`, the z-score is -0.116.

For `CN1C(=S)N(c2ccccc2)C(=O)/C1=C/c1ccco1`, the z-score was -0.162. As for `O=C(NC(Cc1c[nH]c2ccccc12)C(=O)NCc1ccc(F)cc1)OCc1ccccc1` (configuration not stated), the z-score was -0.155. Under `CS(=O)(=O)N(CCc1ccccc1)CC(=O)NCc1cccnc1` stands 0.68; under `CN(C)c1ccc(CN(C(=O)COc2ccc(Br)cc2)C2CCS(=O)(=O)C2)cc1` (configuration not stated), 0.0654.

Consider `COc1ccc(C(=O)NCC(C)C)c(OC)c1`, for which the z-score is 0.305.

The compound `CC1CN(S(=O)(=O)c2ccccc2)C(C)CN1S(=O)(=O)c1ccccc1` (configuration not stated) came in with a z-score of 0.115.

Regarding `Cc1cc2nc(SCC(=O)N(C)C)c3c(c2cc1C)CCCC3`, the z-score was -0.519. Under `Cn1c(CNC(=O)c2cccs2)nnc1SCC(=O)Nc1ccc(Cl)cc1` stands -0.205; under `CC(/C=C/c1ccccc1)=N/NC(=O)CNC(=O)c1ccc2c(c1)OCO2`, -0.0611. Under `Cc1cc(NC(=O)CCC(=O)N(Cc2cccs2)C(C(=O)NC2CCCC2)c2ccccc2)no1` (configuration not stated) stands -0.18; under `O=C(O)c1cc(S(=O)(=O)N2CCCCCC2)c(Cl)cc1Cl`, -0.0409; under `COc1ccc(-c2cc(=O)oc3cc(OC(=O)C4CCCCC4)ccc23)cc1`, -0.232. Turning to `COc1ccc(F)cc1S(=O)(=O)n1cc(C)nc1-c1ccccc1`, the z-score was -0.886. The value for `Cc1nnc(SCC(=O)n2c3c(c4ccccc42)CCCC3)s1` was -0.0805; that for `Cc1ccc(C(=O)NNC(=O)CSc2nnc(-c3ccncc3)n2C)cc1` was -0.121; that for `COc1ccc(C(=O)n2nc(C)cc2C)cc1OC` was -0.221. In turn, `COc1ccc(S(=O)(=O)NCCc2ccccc2)cc1` returned a z-score of 0.0311. `CN1CCN(C(=O)CN(CCc2ccccc2)S(C)(=O)=O)CC1`: the z-score came out at 0.0439. Under `COc1cc(C=O)ccc1OCC(=O)N1CCOCC1` stands -0.617; under `Cc1cccc(OCC(=O)Nc2ccc(N3CCN(C(=O)c4ccco4)CC3)cc2)c1`, -0.087; under `Cn1/c(=N/N=C/c2ccc([N+](=O)[O-])cc2)sc2ccccc21`, -0.205.

In the case of `CCOC(=O)c1c(C)nc2c(c1-c1cc(OC)c(OC)c(OC)c1)C(=O)c1ccccc1-2`, the z-score was -0.175. For the compound `Oc1ccc(N=C/C=C/c2ccc(Br)cc2)cc1-c1nc2ccccc2s1`, the z-score was -0.362. `Cc1noc(C)c1S(=O)(=O)N1CCC(C(=O)N2CCC(N3CCCCC3)CC2)CC1` had a z-score of 0.13. With `Cc1nc(N2CCOCC2)nc(OCCN2CCOCC2)c1[N+](=O)[O-]`, the z-score is -0.39. With `Cn1cc(SCC(=O)O)c2ccccc21`, the z-score is -0.123. The value for `CC(Cc1cccs1)NC(=S)Nc1ccc(F)cc1` (configuration not stated) was -0.132; that for `Cc1cnc(C(=O)OCC(=O)N(C(C)C)C(C)C)cn1` was -0.272; that for `COC(=O)C1C(=O)C2=C(CC1C)NC(C)=C(C(=O)OCCOc1ccccc1)C2c1ccc(C)o1` (configuration not stated) was -1.61. Regarding `CCOc1ccc(C2c3c(oc4ccccc4c3=O)C(=O)N2CCCN2CCOCC2)cc1` (configuration not stated), the z-score is -0.851. As for `O=C(c1cnn2c(C(F)F)cc(C3CC3)nc12)N1CCOCC1`, the z-score was -0.302. The value for `Cn1cc(-c2nnnn2-c2ccccc2)c(=O)c2ccccc21` was 0.01; that for `COC(=O)CSc1nc(NC#N)nc(NC(C)C)n1` was -0.00648; that for `Cc1ccccc1N1CCN(C(=O)c2ccccc2NC(=O)C2CC=CCC2C(=O)O)CC1` (configuration not stated) was -0.389. Consider `CC(C)CC(=O)n1sc(NC(=O)c2ccccc2)nc1=O`, for which the z-score was -0.65. Compound `O=C1NCC(c2ccccc2)C1C(=O)N/N=C\c1ccc(-c2cccc(Cl)c2Cl)o1` (configuration not stated) displayed a z-score of 0.334. For the compound `COc1ccccc1S(=O)(=O)Nc1ccc2cn[nH]c2c1`, the z-score is -0.13. Regarding `CC(C)CCNC(=O)c1cccc(C(=O)NCCC(C)C)c1`, the z-score is -0.145. The value for `COc1ccc(N(CC(=O)N2CCCCC2)S(=O)(=O)c2c(C)nn(C)c2C)cc1` was 0.0812; that for `CCOc1ccc(-c2nc(C#N)c(N3CCN(C)CC3)o2)cc1` was 0.278.

`CCOc1ccc(NS(=O)(=O)CC23CCC(CC2=O)C3(C)C)cc1` (configuration not stated): the z-score came out at 0.425.

Turning to `CCOC(=O)N1CCN(C(=O)CS(=O)Cc2nc(-c3cccc(C)c3)oc2C)CC1` (configuration not stated), the z-score was -0.252. The value for `COc1ccc2oc3cc(C)[n+]([O-])c(-c4ccc(C)cc4)c3c2c1` was -1.14. The compound `O=C(/C=C/c1cccc(F)c1)N(c1ccccn1)C1CCCCC1` registered a z-score of 0.127.

In turn, `COc1cc(OC)c(-c2nc3c[n+](CC(=O)c4ccccc4)ccc3n2C)cc1OC` returned a z-score of 0.162. Regarding `COc1ccc(NC(=O)CSc2nnc(Cn3nnc4ccccc43)n2C)cc1`, the z-score is -0.0884.

`CCn1ncc(/C=C/C(=O)Nc2c(C)nn(Cc3ccc(Cl)cc3Cl)c2C)c1C`: the z-score was -0.897. In turn, `Cn1c(CNc2ccc(Cl)cc2)nnc1SCCN1CCCCC1` came in with a z-score of 0.273.

Consider `Oc1cccc(NC(=S)Nc2cccnc2)c1`, for which the z-score was -0.756.

As to `Cc1ccc(C(C)C)c(OCc2ccc(C(=O)N/N=C/c3cccc(O)c3O)cc2)c1`, the z-score was -0.457. `O=S(=O)(c1ccc(Cl)cc1)N1CCCC1c1nc(-c2cccc(Cl)c2)no1` (configuration not stated) yielded a z-score of 0.0836. Compound `O=c1nc(-c2ccccc2)cn[nH]1` displayed a z-score of 0.0419.

As to `C/C(=N\NC(=O)C1CC1(c1ccccc1)c1ccccc1)c1cccc([N+](=O)[O-])c1` (configuration not stated), the z-score is -0.124. In the case of `Cc1cccc(-c2cc(C(=O)Nc3sc(C)c(C)c3C(N)=O)c3ccccc3n2)c1`, the z-score was -0.0149. As to `Fc1ccc(/C=C2\CCCC3=C2Nc2ncnn2C3c2ccc(F)cc2)cc1` (configuration not stated), the z-score is -0.184. For `CCNc1nc(SC)nc(N(C#N)CC(=O)OC)n1`, the z-score is -0.0523.

`O=C1C(=O)N(CCOCCO)C(c2ccccn2)/C1=C(\O)c1ccccc1` (configuration not stated) had a z-score of 0.0923. As to `CC(=O)N1CCN(c2ccc(Oc3nnnn3-c3ccccc3)cc2)CC1`, the z-score was -0.0818. Take `O=C(OCC(=O)N1CCCC1)c1cncc(Br)c1`: the z-score came to 0.255. Compound `CCOC(=O)c1ccc(S(=O)(=O)Nc2cc(C(C)(C)C)no2)cc1` came in with a z-score of 0.412. In the case of `COCC(=O)N1CCC(n2nnc3cc(F)ccc32)CC1`, the z-score is -0.0323. `CC(C)N(CC#CCC1(O)c2ccccc2-c2ccccc21)CCO`: the z-score amounted to 0.101. `CC1CCC/C(=C\Nc2ccc(O)cc2)C1=O` (configuration not stated): the z-score was -0.462. Consider `COc1ccc(OC)c(S(=O)(=O)N2CCCCC2C(=O)O)c1` (configuration not stated), for which the z-score is 0.288. On to `Fc1ccccc1/C=N/NC(=S)Nc1ccc(Cl)cc1Cl`, for which the z-score is active: 3.47. Regarding `O=C(NC1CCCCC1)C(c1ccncc1)N(Cc1ccccc1)C(=O)c1ccc(-c2ccccc2)[nH]1` (configuration not stated), the z-score is -0.272.

Take `CCOCCCNC(=O)Cn1ncc2c(=O)oc3ccccc3c21`: the z-score was -0.371. For `CCn1c(=S)[nH]c2ccccc21`, the z-score was found to be 0.63.

For `CCCCc1nnc(SCc2ccc(OCC)cc2)n1N`, the z-score is -0.214.

Consider `Cc1cc(=O)c2cc(Br)ccc2[nH]1`, for which the z-score was -0.136. On to `O=C(CSc1nnc(CNC(=O)c2cccs2)o1)NCc1ccc(F)cc1`, for which the z-score is -0.187. The value for `CCS(=O)(=O)N1CCN(c2ccccn2)CC1` was -0.0417; that for `Cc1cccc(N2CCN(C(=O)Cn3sc4nc(C)cc(C)c4c3=O)CC2C)c1` (configuration not stated) was 0.149; that for `COCCn1c(CN(Cc2ccccc2)Cc2ccccc2)nc2c1c(=O)n(C)c(=O)n2C` was active: 3.37.

For `CCOC(=O)c1ccc(CSc2nncn2N)o1`, the z-score is -0.0767. The value for `COC(=O)C(C(=O)OC)C(C[N+](=O)[O-])c1ccc(OC)c(OC)c1` (configuration not stated) was 0.148; that for `Cc1ncc([N+](=O)[O-])n1CC(C)O` (configuration not stated) was 0.025. In the case of `CCn1c(CN2CCN(c3ccc(Cl)cc3)CC2)nc2ccccc21`, the z-score is -0.234. Turning to `COC(=O)c1ccc(NN=Nc2ccc(C)cc2)cc1`, the z-score was -0.0599. Regarding `Cc1c(C(=O)N2CCC(C)CC2)sc2ncnc(N(C)c3ccccc3)c12`, the z-score is -0.66.

`COC(=O)Cn1cnc2sc(C)c(S(=O)(=O)N3CCC(C)CC3)c2c1=O` gave a z-score of 0.108. With `Cc1ccc(-n2ncc3c(NCC4CCCO4)ncnc32)c(C)c1` (configuration not stated), the z-score was -0.069. Turning to `COc1ccc(NC(=O)CCC2CCCCC2)cc1S(=O)(=O)N1CCCCC1`, the z-score was -0.36. With `Cc1ccc(C)c(N2CCN(c3ccc(N4C(=O)COCC4=O)cc3[N+](=O)[O-])CC2)c1`, the z-score is -0.128. Under `O=C(O)CN=C(NS(=O)(=O)c1ccc(Cl)cc1)c1ccccc1` stands 0.274. On to `CCOC(=O)c1cc2sc(C)cc2n1CC(=O)NCc1ccc(F)cc1`, for which the z-score was -0.00664. As for `COc1ccccc1C1C=C(c2ccc(Cl)cc2)Nc2nc(N3C(=O)CCC3=O)nn21` (configuration not stated), the z-score is -0.597. Turning to `COC(=O)C1=CNC=C(C(=O)OC)C1c1ccc(Cl)cc1`, the z-score was -0.447. Compound `N/C(CCCN1CCCCC1)=N/O` registered a z-score of 0.285.

Consider `Cc1cccc(-c2nnc(-c3cccc(NC(=O)Cc4cccs4)c3)o2)c1`, for which the z-score is 0.0914.

With `Nn1c(SCC(=O)NC2CCCCC2)nnc1-c1ccccc1`, the z-score is -0.113.

Regarding `CC(C)=CCSc1nnc([C@@H](NC(=O)OC(C)(C)C)C(C)C)o1`, the z-score was -0.198. For the compound `COC(=O)COc1ccc(Cl)cc1C1Nc2ccccc2C(=O)N1c1ccc(OC)cc1` (configuration not stated), the z-score was -0.642. As to `C=CCn1c(C(CCCC)CC(C)O)n[nH]c1=S` (configuration not stated), the z-score was -0.296. `CCNc1ccc(S(=O)(=O)N(C)C)cc1NCC(=O)Nc1ccc(Br)cc1F`: the z-score is -0.257. As to `CCC(C(=O)N1CCN(S(C)(=O)=O)CC1)c1ccccc1` (configuration not stated), the z-score was -0.0165. The compound `O=C(COc1ccc(Cl)cc1Cl)NCc1ccco1` yielded a z-score of 0.146. The value for `Cc1cc(CCN2CCC(=O)NC2=S)ccc1OC(C)C` was -0.0392; that for `COc1ccc(CNC(=S)N/N=C/c2ccc(OC)c(OC)c2)cc1` was 0.908; that for `O=C(C1=NN(c2ccccc2)C2C(=O)N(c3ccccc3Cl)C(=O)C12)c1ccccc1` (configuration not stated) was 0.395. On to `Cc1nc(-c2cccnc2)sc1C(N)=O`, for which the z-score is -0.109. The value for `Cc1cc(C(F)F)n2ncc(C(=O)NCCc3ccc(Cl)cc3)c2n1` was -0.612; that for `COc1ccccc1-c1cc(C(=O)NCCCn2ccnc2)no1` was -0.27. Compound `N#CC1=C(N)Oc2c(oc(CO)cc2=O)C1c1ccsc1` (configuration not stated) came in with a z-score of 0.321. Regarding `COc1ccc(CNC(=O)COC(=O)C2CCC(C(C)(C)C)CC2)cc1` (configuration not stated), the z-score is -0.144. On to `COc1ccc(-n2c(N)c(C(=O)NCc3ccco3)c3nc4ccccc4nc32)c(OC)c1`, for which the z-score is -0.884.

As to `O=C(COc1ccccc1)NC1=NCCS1`, the z-score is -0.0489. `CCOC(=O)C(=NCCOC)NNc1cc(Cl)ccc1Cl`: the z-score turned out to be 0.196. On to `O=C(CCN1C(=O)C2C3C=CC(C3)C2C1=O)Nc1c(F)cccc1F` (configuration not stated), for which the z-score is -0.143. As to `COc1ccc(CCN2C(=O)CC(C(N)=O)SC2=Nc2ccccc2)cc1OC` (configuration not stated), the z-score came out at 1.15. Take `Cc1cccc(-c2cc3nc4c(c(N5CCCC(O)C5)n3n2)CCC4)c1` (configuration not stated): the z-score was -0.584.

Values taken from PubChem BioAssay AID488969 (Vanderbilt High Throughput Screening Facility, 2010).
